Data reported in the supplement of paper PMC11417369.
± gives the standard deviation of the averaged measurements. This is one part of the list.

tested on: PfAP2-G AP2 domain (GST-tagged); assay: gcPBM binding intensity (ln(normalized median fluorescence intensity)); higher = stronger DNA binding
Summary of the method: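 Binding of GST-tagged P. falciparum DNA-binding domains, expressed in E. coli and used at about 25 μg on average, was carried out for 1 h in 1× PBS containing 1% milk, 0.2 mg/ml BSA, 0.5% salmon testes DNA and 0.03% Triton X-100. The target was an Agilent 4 × 180k array of primer-extended double-stranded 36-bp intergenic genomic probes plus negative controls, read with Alexa488 anti-GST antibody at 488 nm. Binding intensity is the highest Masliner-normalised natural-log median intensity across replicate spots of either probe orientation.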

| Sequence | gcPBM binding intensity (ln) |
| --- | --- |
| ATTTTTTTTTTTTTTTTTAATTTATGTTGTTATTTT [CACACA_negctrl_site944] | 9.7 ± 0.16 |
| GTAAAATAAATAATATAAATAAAATGAAATGAAACA [TGCATGCA_negctrl_site519] | 9.93 ± 0.057 |
| AAGTTTAAAGGAATTACACAAACAAGCAAATATATA [CACACA_negctrl_site857] | 10.1 ± 0.18 |
| ATTTTCTTAAATAAATGTACATGGCATTAAAAGTAA [XGTACX_site5119] | 11.1 ± 0.58 |
| ATACCATATAATTATGTGAGAAAATATAATATTCAT [CACACA_negctrl_site310] | 9.71 ± 0.2 |
| AAAAAAAAAAAAAATACACACAAATAATAAAAATAA [CACACA_site1431] | 9.88 ± 0.16 |
| TGTACGTTTTTTAACACACACACAAAAAAAAAAAAA [CACACA_site6006] | 10.9 ± 0.68 |
| ATATATATATATGTATGTACATAATATTTTTTTTAT [XGTACX_site5551] | 11.2 ± 0.69 |
| TATTTGTATATTCATTCCTGTATTCCCTTTTTTGTA [CACACA_negctrl_site1236] | 9.94 ± 0.085 |
| ATAATGTCATAATTATATCCTTTGGCATAAAATAAA [XGTACX_negctrl_site574] | 9.84 ± 0.2 |
| CCTAAATAAATGGACACACACATATTTATATTTATA [CACACA_site6789] | 11 ± 0.71 |
| GAATGTAAATATTAAAGTACACAGAATATATCTTCA [XGTACX_site8149] | 11.3 ± 0.75 |
| TATAATATTATATAATGTACGCATTTATTATTTAAA [XGTACX_site8326] | 11.5 ± 1 |
| TTAAATATCCATATTTCACACATTTCGATATATATA [CACACA_site4208] | 9.99 ± 0.21 |
| ACTGTACTATAAAATACACACATATAAATATAAATA [CACACA_site3009] | 11.2 ± 1 |
| TATTTTAGAGAAAAAAATAAATTACAAAATGTTAGG [CACACA_negctrl_site1645] | 9.93 ± 0.2 |
| TTTGAAGGAAGGGGGGGAGGGGCCATAACAAAGGAA [GTGCAC_negctrl_site408] | 11.6 ± 0.86 |
| AAATAAAATCATGAATGTACACAAAAATTATTGCAA [XGTACX_site5691] | 11.3 ± 0.68 |
| ATATACATTTTAAATTTTAATGTAACCCATGGGAGA [CACACA_negctrl_site588] | 10.2 ± 0.2 |
| TGAACCCACAAATCACGTACATATATATACACGTGT [XGTACX_site7739] | 11.4 ± 0.93 |
| TTTAACAACTATTTCTGTACACATTTTTATATAATT [XGTACX_site4917] | 11.5 ± 0.91 |
| TATATACGTAATAGTAGTACTTTAAAATGCGGAAAT [XGTACX_site4597] | 11.5 ± 0.73 |

| Sequence | gcPBM binding intensity (ln) |
| --- | --- |
| TGTACGAGTCGTAGAGTGCAGTCTGGAGAAACGTAC [GTGCAC_site9682] | 11 ± 0.47 |
| ATAAATAACTTTTAAATACACACGTAAAATATATTG [CACACA_site3302] | 10.15 ± 0.014 |
| ATTTATATTATGAGGAGTACAATACTTATAGATGTA [XGTACX_site7510] | 11.6 ± 0.98 |
| AAAAAAGATATATAAACACACATATTTATATACACA [CACACA_site6866] | 9.66 ± 0.16 |
| GATAGACACGTGCACACATGCAATACTTTATTCAGT [TGCATGCA_site778] | 10.6 ± 0.29 |
| GTAGTAATAAATCTAGTGCATTATATATAACAAAAA [GTGCAC_site9803] | 10.02 ± 0.049 |
| TTTTTTTCTTTTTTTTGTACTCATACATACTATCAT [XGTACX_site607] | 11.3 ± 0.73 |
| AAAAATGTGCACACGCGTACACACAAAAAAAGAAAA [XGTACX_site4097] | 11.5 ± 0.79 |
| AAAATATATCAAAATAGTACATAATTTTTTAAGAAT [XGTACX_site3515] | 11 ± 0.76 |
| TATATAAAAAATAGGTGGTCAACTTAAATATTTTAT [XGTACX_site4495] | 11.3 ± 0.74 |
| AATAAAGCAATAAATACACACATATATATATATATA [CACACA_site2934] | 10 ± 0.28 |
| TTGCCTTAAAAAGGAACACACATGCTTTTTTTAGTT [CACACA_site938] | 9.99 ± 0.071 |
| AAAAAAAAAAAAAATGCACACATATATTTCCATATA [CACACA_site8416] | 10 ± 0.16 |
| AACTTACTCTTTACAAGTACGTAAAAGAAATAGAAA [XGTACX_site1782] | 11.4 ± 0.8 |
| AGTTATGCATCTTAGGTGCTATGCCCAATTTATTTT [GTGCAC_site9977] | 9.96 ± 0.042 |
| GTATATATACATAAATGTACATATATATAAAAAATG [XGTACX_site3271] | 11 ± 0.61 |
| AATATATAAGTCTACTGTACCCAAAATAAAATTTAT [XGTACX_site8727] | 11.5 ± 0.91 |
| ATATATCCAAATAGATTACATATATATATATAGATA [TGCATGCA_negctrl_site277] | 9.64 ± 0.099 |
| AAATATAATAAAATGACACACGCATATATATATATA [CACACA_site8900] | 10 ± 0.28 |
| AAATAAGAACATAGAATGCACTTTTTTTTTTTTTCC | 10.07 ± 0.057 |
| ATATATTTATATATTGCACACAAAAAAAAAAAAAAA [CACACA_site8468] | 9.98 ± 0.64 |
| AACATTATAAGACACACACACACATATATAAATATA [CACACA_site6622] | 10.2 ± 0.24 |

| Sequence | gcPBM binding intensity (ln) |
| --- | --- |
| TTATGGGACTCAAATACATGCAAAAATATTTTTAAG [TGCATGCA_site559] | 10.5 ± 0.42 |
| TAAGGTTAAATAATATGTACATATTATTATATATAT [XGTACX_site6953] | 11.3 ± 0.72 |
| TTAAACCGTGGGAGCACACACACACCCAGACACATA [CACACA_site4337] | 10.4 ± 0.35 |
| AAATATGTATATATATATATATATATATATATATAT [GTGCAC_negctrl_site335] | 9.76 ± 0.47 |
| TATTGCCCTTGACACACACACATATAAATAAATATA [CACACA_site7220] | 10.4 ± 0.42 |
| CACGTGTAAATAGTTTTACAATATCTCGATATGTAT [CACACA_negctrl_site785] | 10.1 ± 0.18 |
| TAATAATCAAACTATACACACATAAATAAATATATA [CACACA_site156] | 9.77 ± 0.014 |
| AAGGAAATAAGAAAAAGTACACATAAGTATATAACA [XGTACX_site1173] | 11.5 ± 0.85 |
| GTAATTATATACATACGTACATACACATATGTATAT [XGTACX_site4149] | 11.3 ± 0.65 |
| GGATATATGAAACATATTGAAAAACCGTTTAGTACA [CACACA_negctrl_site132] | 10.5 ± 0.3 |
| TAATTTTTGTAAACAGTCATGGATTCAAAAAAAAAA [CACACA_negctrl_site593] | 9.97 ± 0.13 |
| TTACTATGTAAACACACATGCAATATATGTTAAGCC [TGCATGCA_site253] | 10 ± 0.18 |
| TTATATGAAAATTATTGTACAATCTATAAAAAAAAT [XGTACX_site4194] | 11 ± 0.66 |
| TTTTATCATATTTATTGTACACATAATATACATATC [XGTACX_site1145] | 11.5 ± 0.9 |
| AATAAATAAATATATACACACATATATCTGTACATA [CACACA_site9034] | 10.9 ± 0.67 |
| AGGAAAAAAAAAATGTGTACTTAAAAAAAAAAAATT [XGTACX_site1471] | 11.6 ± 0.93 |
| TGTATGTTTATTTATCGTACATATATATATATATAT [XGTACX_site7315] | 11 ± 0.61 |
| TTTTATATATTATATACACACATATATATATATATA [CACACA_site2999] | 10.2 ± 0.61 |
| TTTGAATCCTTATATACACACATTATATAATATTAT [CACACA_site4472] | 10.2 ± 0.15 |
| TATATATATATACATTGTACATTATTGATTATAACA [XGTACX_site1678] | 10.7 ± 0.49 |
| CATTTTATAAAAAGCACACATATAGTTATATGCACA [CACACA_site3691] | 10.04 ± 0.071 |
| TAAATTATAATAAATACACACAAATTATAATTCTAT [CACACA_site3942] | 9.88 ± 0.11 |

| Sequence | gcPBM binding intensity (ln) |
| --- | --- |
| ATATATAAAAAATGTGGTACATTCATTTATTATACA [XGTACX_site3495] | 11.2 ± 0.92 |
| AAATTAGAATTAGGAACACACATATTTATATTTATA [CACACA_site7450] | 9.82 ± 0.057 |
| TTTATTCTCCGACACACACACATATATTTATTTATA [CACACA_site7377] | 10.2 ± 0.19 |
| ACAAAGTAAAATAATGCATGTAGGTATACATAATTA [TGCATGCA_site607] | 9.88 ± 0.099 |
| AATATTTTATATAAATGTACATTTATGAATAATATA [XGTACX_site8477] | 10.9 ± 0.54 |
| GTGCTAAAAGTATATGCACACACATATATATGCACA [CACACA_site8472] | 10.1 ± 0.16 |
| ACATATTTCCAATAATGTACATACAAAATAAGAATG [XGTACX_site2659] | 11.1 ± 0.61 |
| TAAAAGTAGATATATACACACATAAATATAGATGTA [CACACA_site6457] | 9.775 ± 0.035 |
| TGTTCATTTATTTACTTACACACTTTATATATGTGG [CACACA_site1410] | 10.05 ± 0.049 |
| TAAAAATATATAAACAGTACATAAATTAAATAAATA [XGTACX_site6962] | 10.6 ± 0.3 |
| AAAAATAAAAAGAATTGTACATATAAATCATATACA [XGTACX_site6860] | 10.8 ± 0.54 |
| GACCCAATGAAAAGGTCACACATTTTTTCTTTTCGA [CACACA_site5074] | 10.3 ± 0.19 |
| TATTTTTTTTAGCGTACATGCAAAAAAAAAAAAAAA [TGCATGCA_site555] | 11.4 ± 1.1 |
| GTTTATTTATTTTATGTGCACATATAACAAAAAAAA | 10.7 ± 0.64 |
| GTTAAAATTTGTCAATGTACAGAAATAATAAAAAAA [XGTACX_site1879] | 10.9 ± 0.49 |
| AAAGTTTTTACCAAGTGTACATATATATATATATAT [XGTACX_site5786] | 11.3 ± 0.85 |
| TTTTTTCTTTAATACTCAATATGATAAAAGTAACAC [XGTACX_negctrl_site163] | 10.3 ± 0.34 |
| AAATTATATATATTTACATGCAATATAATGAAATAA [TGCATGCA_site229] | 9.785 ± 0.035 |
| ATAAAATAAAACAGAGCACACATTTTATTTACATTC [CACACA_site696] | 10 ± 0.057 |
| ATATATATATCATATTGTACATATTATTGTATAATC [XGTACX_site5020] | 11 ± 0.47 |
| ATTTTTTTTTTTATAGTGGAACCACATTTGCCATTT [CACACA_negctrl_site1247] | 10.4 ± 0.47 |
| TATTAAATGAAACAAACACACATAGCCTTTAAATAT [CACACA_site1560] | 10 ± 0.099 |
